ChEMBL document CHEMBL1201862, “PubChem BioAssay data set” (2004)

test system: NCI-H322M; assay: NCI anticancer screen, dose series, 48 h

Row | Structure (SMILES) | GI50
1 | CC(=O)Nc1ccc2nc(-c3cccc(Cl)c3)cc(O)c2c1 | inactive: 50.9 µM
2 | O=C(O)C1CC(O)CN1 (stereo not given) | inactive: > 100 µM
3 | CC(=O)c1cc2c(s1)C(=O)c1sccc1C2=O | active: 0.189 µM
4 | Cc1cnc2sn(-c3ccc(Oc4ccccc4)cc3)c(=O)c2c1 | inactive: 34.3 µM
5 | CCOC(=O)c1c(SCCN2CCCCC2)n(-c2ccccc2)c(=S)n(-c2ccccc2)c1=O | inactive: 36.1 µM
6 | O=C(O)c1[nH]c(C(=O)O)c(CC(F)(F)C(F)(F)C(F)(F)F)c1CC(F)(F)C(F)(F)C(F)(F)F | inactive: > 100 µM
7 | COC(=O)C1Cc2c([nH]c3ccccc23)-c2[nH]c3ccccc3c2CC(NC(C)=O)C(=O)NCC(=O)NCC(=O)N1 (stereo not given) | inactive: > 100 µM
8 | CC1=NN(C(=O)Cc2ccccc2)C(=O)/C1=C\C=C\c1ccccc1 | inactive: > 100 µM
9 | CN(C)C(=O)N(CCCl)N=O | inactive: > 100 µM
10 | Nc1nc(N)c(CCCCc2ccc([N+](=O)[O-])cc2)c(N)n1 | inactive: > 100 µM
11 | C[C@H](c1ccccc1)n1c(N)c(-c2nc3ccccc3s2)c2ccc([N+](=O)[O-])cc2c1=O | inactive: 3.07 µM
12 | COC(=O)C(=O)C(C(=O)C=C(C)C)C(=O)C(=O)Nc1nc2ccc([N+](=O)[O-])cc2s1 (stereo not given) | inactive: 34.2 µM
13 | CN1c2ccccc2C2c3c(O)ccc(O)c3C=C([N+](=O)[O-])C21 (stereo not given) | inactive: 2.19 µM
14 | COc1cc2c(cc1O)[C@@H]1Cc3c(cc(OC)c(OC)c3Oc3cc4c(cc3OC)CCN(C)[C@@H]4Cc3ccc(O)cc3)[C@H](C2)N1C | inactive: > 100 µM
15 | CC1=C(C(=O)Nc2ccccc2)C(c2ccc(C3C(C(=O)Nc4ccccc4)=C(C)NC(C)=C3C(=O)Nc3ccccc3)cc2)C(C(=O)Nc2ccccc2)=C(C)N1 | inactive: 7.91 µM
16 | COC(=O)C(Cc1c[nH]c2ccccc12)NP(=O)(O)OCC1OC(n2cc(I)c(=O)[nH]c2=O)CC1O (stereo not given) | inactive: > 100 µM
17 | CC(Cl)(/C=C/Cl)C(Cl)/C=C/C(Cl)(CCl)CBr (stereo not given) | inactive: 11.7 µM
18 | CCOP(=O)(OCC)OC1c2[nH]ccc2-c2cc(C(=O)OC)[nH]c2C1OC (stereo not given) | inactive: > 100 µM
19 | CNC1C(O)CC(OC2C/C=C(\C)C/C(C)=C/C=C/CCC(C)CNC(=O)/C=C/C=C/C2C)OC1C (stereo not given) | active: 0.802 µM
20 | COc1ccc(C(=O)/C=C/c2cccnc2)cc1OC | inactive: 14.1 µM
21 | COC(=O)/C=C/c1ccc2c(c1)CCC2 | inactive: > 100 µM
22 | O=C([C@H](O)[C@@H](O)c1ccc(Br)cc1)C12CC3CC(CC(C3)C1)C2 | inactive: 5.41 µM
23 | COc1cccc(NC(=O)CC(=O)N2N=C(N(CCC#N)c3ccc(Cl)cc3)CC2c2ccccc2)c1 (stereo not given) | inactive: > 100 µM

Row | Structure (SMILES) | GI50
24 | O=C1C[C@@H]2[C@@H](c3ccccc3)[C@@H]3C(=O)c4ccccc4NC(=O)[C@H]3[C@]2(O)c2ccccc2N1 | inactive: > 100 µM
25 | CC1(C)CCC(=O)NC1CC(=O)CC1NC(=O)CCC1(C)C (stereo not given) | inactive: > 100 µM
26 | COc1ccc2c(CCNS(=O)(=O)c3ccccc3)c(C(C)=O)[nH]c2c1 | inactive: > 100 µM
27 | CC1(C)CCC(Sc2ccccc2)O1 (stereo not given) | inactive: > 100 µM
28 | CC(Oc1ccc(OCC2CCCCC2)cc1)C(=O)NCCO (stereo not given) | inactive: > 100 µM
29 | CN1COc2c(n(C)c(=O)[nH]c2=O)C1 | inactive: > 100 µM
30 | COc1nc2sc3c(c2c(=O)n1CCCSSCCCn1c(OC)nc2sc4c(c2c1=O)CCCC4)CCCC3 | inactive: > 100 µM
31 | CCSC1=N/C(=C/c2ccccc2O)C(=O)N1 | inactive: > 100 µM
32 | NC(=O)CCC(CCC(N)=O)(CCC(N)=O)[N+](=O)[O-] | inactive: > 100 µM
33 | Cc1nc2cc(/N=N/c3c(O)ccc4ccccc34)ccc2[nH]1 | inactive: > 100 µM
34 | CCN(CC)Cc1ccc(C(=S)Nc2ccc(C)cc2)s1 | inactive: 17.8 µM
35 | CNC(=O)NCNC(=O)NC | inactive: > 100 µM
36 | CCCN(CCC)c1c([N+](=O)[O-])cc(C(=O)N(C)C)cc1[N+](=O)[O-] | inactive: > 100 µM
37 | COC(=O)c1cc(/C=C2\Cc3cc4c(cc3C2=O)CCC4)cc2c1CCC2 | inactive: > 100 µM
38 | CCCCCCOc1ccc(NC2=C(Cl)C(=O)c3c(O)ccc(O)c3C2=O)cc1 | inactive: 2.01 µM
39 | COc1ccc(N)c(C(O)CCNC(C)=O)c1 (stereo not given) | inactive: > 100 µM
40 | CCOC(=O)c1c(CN2CCOCC2)n(Cc2ccccc2)c2c1cc(O)c1nc(C)c(C)nc12 | inactive: > 100 µM
41 | O=C(Nc1cc(Cl)c(I)c(Cl)c1)C(F)(F)F | inactive: 30.3 µM
42 | O=C1CC2OCC=C3CN4CCC56c7ccccc7N1C5C2C3CC46O (stereo not given) | inactive: > 100 µM
43 | CCCCCCCCCCCCCCCCCCN(C)C(COC)COP(=O)([O-])OCC[N+](C)(C)C (stereo not given) | inactive: 8.38 µM
44 | CC(C)=CCC[C@@H](C)C1=C(O)C(=O)C(C)=C(Nc2ccccc2Cl)C1=O | inactive: 21.2 µM
45 | Cc1cc(=O)n2c(cc3cccccc32)n1 | inactive: > 100 µM
46 | N#Cc1cc(C#N)c(N)nc1N | inactive: > 100 µM

Row | Structure (SMILES) | GI50
47 | CCc1n[nH]c(=O)n1O | inactive: > 100 µM
48 | Cc1cccc(NC(=O)C(=O)C(C(=O)c2ccc3ccccc3c2)C2OC(=O)c3ccccc32)c1C (stereo not given) | inactive: 10.1 µM
49 | Oc1nnc2c(-c3ccccc3)n[nH]c2n1 | inactive: > 100 µM
50 | CC(O)c1ccc[n+](Cc2ccccc2)c1 (stereo not given) | inactive: > 400 µM
51 | COc1ccc(-c2nc3ncccn3c2-c2ccc([S+](C)[O-])cc2)cc1 (stereo not given) | inactive: > 100 µM
52 | Cc1ccc(S(=O)(=O)N2CCN(S(=O)(=O)c3ccc(C)cc3)CCN(S(=O)(=O)c3ccc(C)cc3)Cc3cc(Br)c(Br)cc3CN(S(=O)(=O)c3ccc(C)cc3)CC2)cc1 | inactive: 89.1 µM
53 | O=C1C=CC2=[N+]([O-])C(c3ccccc3)(c3ccccc3)/C(=N\c3ccccc3)C2=C1 | inactive: 7.08 µM
54 | Cc1ccc([N+](=O)[O-])cc1S(=O)(=O)Nc1ccc(C2=NNC(c3ccccc3)C2)cc1 (stereo not given) | inactive: 29.4 µM
55 | CC1C(=O)CCC1C(Sc1ccccc1)(Sc1ccccc1)Sc1ccccc1 (stereo not given) | inactive: 33.3 µM
56 | CC(C)N(C(=O)C12C3C4C5C3C1(C(=O)N(C(C)C)C(C)C)C5C42)C(C)C (stereo not given) | inactive: > 100 µM
57 | C=C1CC[C@]2(C)[C@H](CC[C@@]34C[C@@H](CC[C@H]32)[C@@H](C(=O)O)C4)C1(C)C | inactive: 7.31 µM
58 | CC[C@H]1C[C@@H](O)[C@@H]2[C@H](O)[C@H](O)CN2C1 | inactive: > 100 µM
59 | O=C(NCCNCCCNC(=O)c1cc(-c2ccccc2)nc2ccccc12)c1cccc(O)c1O | inactive: 10.7 µM
60 | COc1ccc(C2CCc3cc4c(cc3/C2=N/OC(C)=O)OCO4)cc1OC (stereo not given) | inactive: 40.6 µM
61 | Nc1nc(Cl)c(C=O)c(NCC2(CO)CC(CCc3ccccc3)C2)n1 (stereo not given) | inactive: 13.5 µM
62 | O=P1(c2ccccc2)Nc2ccccc2SSc2ccccc2N1 | inactive: 16.7 µM
63 | Cc1oc2nc(N(C)C)nc(NN)c2c1C | inactive: > 100 µM
64 | NCC(Cc1ccccc1)P(=O)(O)O (stereo not given) | inactive: > 100 µM
65 | CC(=O)OCCc1cc2ccccc2oc1=O | inactive: > 100 µM
66 | COC(=O)[C@@H]1c2cc3c(c(O)c2[C@@H](OC2OC(C)C(OC)C(C)(OC)C2OC)C[C@]1(C)O)C(=O)c1c(O)cc2c(c1C3=O)O[C@H]1O[C@]2(C)[C@H](O)[C@@H](N(C)C)[C@@H]1O (stereo not given in full) | active: 0.0232 µM
67 | CCOC(=O)c1c(NS(=O)(=O)c2ccccc2)sc2c1CCCC2 | inactive: 69.5 µM
68 | CC1CN(c2ccc(Cl)cc2)CC(C)(C)OC(=O)O1 (stereo not given) | inactive: > 100 µM
69 | Cc1sc2nc(N(C)C)oc(=O)c2c1C | inactive: > 100 µM

Row | Structure (SMILES) | GI50
70 | COC(=O)[C@@H]1CCc2nc3ccccc3c(=O)n21 | inactive: > 100 µM
71 | O=C(O)c1nc2cc(Cl)ccc2[nH]c1=O | inactive: > 100 µM
72 | CCCCN(Cc1ccccc1)/C(=N/C#N)N(Cc1ccccc1)Cc1ccccc1 | inactive: 32.1 µM
73 | CCSC1(SCC)CC(Cc2ccc(OC)cc2)N(/C=N/C(C)(C)C)C1 (stereo not given) | inactive: 17.3 µM
74 | Cc1nc2c(=O)n(C)c(=O)nc-2n(CCO)c1C | inactive: > 100 µM
75 | CSc1nc2c(c(N(C)C)n1)C=Nn1c(nc3ccccc31)S2 | inactive: 98.9 µM
76 | CN(C)CCCNC(=O)c1cc(NC(=O)c2cc(NC(=O)[C@@H]3C[C@H]3C(=O)Nc3cc(C(=O)Nc4cc(C(=O)NCCCN(C)C)n(C)c4)n(C)c3)cn2C)cn1C | inactive: > 100 µM
77 | COc1ccc(C2=NN(C(=O)c3ccc(Cl)cc3)C(O)(c3cc(F)c(Cl)cc3Cl)C2)cc1OC (stereo not given) | inactive: 32.6 µM
78 | O=C(Cc1ccccc1)c1ccc2[nH]c(=O)oc2c1 | inactive: 70.6 µM
79 | CN(C)CCCNC(=O)CCNC(=O)c1cc(NC(=O)c2cc(NC(=O)c3cc(NC(=O)CCCNC(=O)c4cc(NC(=O)c5cc(NC(=O)c6nccn6C)cn5C)cn4C)cn3C)cn2C)cn1C | inactive: > 100 µM
80 | C=C(C)CCC1C=[N+]([O-])OC(C)(C)C1(C)C (stereo not given) | inactive: > 100 µM
81 | O=C(CSC(=S)N1CCOCC1)Nc1nc2c(s1)CCCC2 | inactive: > 100 µM
82 | O=C1C=CC2(C=C1)O[C@H](COCc1ccccc1)[C@@H](COCc1ccccc1)O2 | inactive: 16.1 µM
83 | NC(=O)c1ccc(NS(=O)(=O)c2ccc(N)cc2)nc1 | inactive: > 100 µM
84 | CC1CC2OC(=N)C1(C#N)C2(C#N)C#N (stereo not given) | inactive: 58.6 µM
85 | O=C(/C=C/c1ccc(O)cc1)OC[C@@H](O)COC1OC(CO)C(O)C(O)C1O (stereo not given in full) | inactive: > 100 µM
86 | COc1ccc(/C=c2\sc3n(c2=O)CCN=3)cc1 | inactive: > 100 µM
87 | COC1=NN2C(OC)(c3ccccc3)c3c(-c4ccccc4)sc(-c4ccccc4)c3C2(c2ccccc2)S1 (stereo not given) | inactive: > 100 µM
88 | COc1cc([C@@H]2OC[C@@H]3C(c4cc(OC)c5c(c4)OCO5)OC[C@@H]32)cc(OC)c1OC (stereo not given in full) | inactive: > 100 µM
89 | CCCCCCCCCCCC[C@@H](O)[C@H]1CC[C@H]([C@H](O)CC[C@H](O)[C@@H]2CC[C@@H](CCCCCCCC3=C[C@H](C)OC3=O)O2)O1 | inactive: > 50 µM
90 | C/C(=N\N=C(/S)SCc1ccccc1)c1ccccn1 | active: < 0.0149 µM

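Step 1: Grow cells in 96-well plates. Step 2: Expose to compound for 48 hours at 5 concentrations. Step 3: Interpolate endpoints linearly; if unreached, use highest concentration. The concentration for 50% growth inhibition is given as GI50.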 Calls of active or inactive are those of the source. No stated cut-off is given here; in the data, active = GI50 up to about 1.1 µM and inactive = higher.
